The other results are listed elsewhere or left out.
Experiments:
Assay in all cases: glycan array binding signal (z-score within array); higher = stronger binding
Details in all cases: glycan notation: IUPAC condensed, linker removed
[1] = molecular target: Gal(b1-4)GlcNAc(b1-3)Gal(b1-4)GlcNAc(b1-3)Gal(b1-4)GlcNAc(b1-3)Gal(b1-4)GlcNAc(b1-2)Man(a1-3)[Gal(b1-4)GlcNAc(b1-3)Gal(b1-4)GlcNAc(b1-3)Gal(b1-4)GlcNAc(b1-3)Gal(b1-4)GlcNAc(b1-2)Man(a1-6)]Man(b1-4)GlcNAc(b1-4)[Fuc(a1-6)]GlcNAc
In short: (§1)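 Glycan array data came from 3228 arrays in the Consortium for Functional Glycomics database, and only arrays with an available protein sequence were kept. Glycan names were put into IUPAC-condensed notation, and columns mapping to the same glycan were averaged. The binding signal is a within-array Z-score, averaged across arrays of one protein sequence run at different concentrations or buffers and across linkers. A negative Z-score can be read as non-binding.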

[2] = molecular target: Gal(b1-4)GlcNAc(b1-3)Gal(b1-4)GlcNAc(b1-3)Gal(b1-4)GlcNAc(b1-3)Gal(b1-4)GlcNAc(b1-2)[Gal(b1-4)GlcNAc(b1-3)Gal(b1-4)GlcNAc(b1-3)Gal(b1-4)GlcNAc(b1-3)Gal(b1-4)GlcNAc(b1-6)]Man(a1-6)[Gal(b1-4)GlcNAc(b1-3)Gal(b1-4)GlcNAc(b1-3)Gal(b1-4)GlcNAc(b1-3)Gal(b1-4)GlcNAc(b1-2)Man(a1-3)]Man(b1-4)GlcNAc(b1-4)[Fuc(a1-6)]GlcNAc
In short: as §1

[3] = molecular target: Gal(b1-4)GlcNAc(b1-3)Gal(b1-4)GlcNAc(b1-3)Gal(b1-4)GlcNAc(b1-3)Gal(b1-4)GlcNAc(b1-3)Gal(b1-4)GlcNAc(b1-2)Man(a1-3)[Gal(b1-4)GlcNAc(b1-3)Gal(b1-4)GlcNAc(b1-3)Gal(b1-4)GlcNAc(b1-3)Gal(b1-4)GlcNAc(b1-3)Gal(b1-4)GlcNAc(b1-2)Man(a1-6)]Man(b1-4)GlcNAc(b1-4)GlcNAc
In short: as §1

[4] = molecular target: Gal(b1-4)GlcNAc(b1-3)Gal(b1-4)GlcNAc(b1-3)Gal(b1-4)GlcNAc(b1-3)Gal(b1-4)GlcNAc(b1-3)Gal(b1-4)GlcNAc(b1-2)Man(a1-3)[Gal(b1-4)GlcNAc(b1-3)Gal(b1-4)GlcNAc(b1-3)Gal(b1-4)GlcNAc(b1-3)Gal(b1-4)GlcNAc(b1-3)Gal(b1-4)GlcNAc(b1-2)Man(a1-6)]Man(b1-4)GlcNAc(b1-4)[Fuc(a1-6)]GlcNAc
In short: as §1

[5] = molecular target: Gal(b1-4)GlcNAc(b1-3)Gal(b1-4)GlcNAc(b1-3)Gal(b1-4)GlcNAc(b1-3)Gal(b1-4)GlcNAc(b1-3)Gal(b1-4)GlcNAc(b1-2)[Gal(b1-4)GlcNAc(b1-3)Gal(b1-4)GlcNAc(b1-3)Gal(b1-4)GlcNAc(b1-3)Gal(b1-4)GlcNAc(b1-3)Gal(b1-4)GlcNAc(b1-6)]Man(a1-6)[Gal(b1-4)GlcNAc(b1-3)Gal(b1-4)GlcNAc(b1-3)Gal(b1-4)GlcNAc(b1-3)Gal(b1-4)GlcNAc(b1-3)Gal(b1-4)GlcNAc(b1-2)Man(a1-3)]Man(b1-4)GlcNAc(b1-4)[Fuc(a1-6)]GlcNAc
In short: as §1

[6] = molecular target: Gal(b1-4)GlcNAc(b1-3)Gal(b1-4)GlcNAc(b1-3)Gal(b1-4)GlcNAc(b1-3)Gal(b1-4)GlcNAc(b1-3)Gal(b1-4)GlcNAc(b1-3)Gal(b1-4)GlcNAc(b1-2)Man(a1-3)[Gal(b1-4)GlcNAc(b1-3)Gal(b1-4)GlcNAc(b1-3)Gal(b1-4)GlcNAc(b1-3)Gal(b1-4)GlcNAc(b1-3)Gal(b1-4)GlcNAc(b1-3)Gal(b1-4)GlcNAc(b1-2)Man(a1-6)]Man(b1-4)GlcNAc(b1-4)GlcNAc
In short: as §1

[7] = molecular target: Gal(b1-4)GlcNAc(b1-3)Gal(b1-4)GlcNAc(b1-3)GalNAc
In short: as §1

[8] = molecular target: Gal(b1-4)GlcNAc(b1-3)Gal(b1-4)GlcNAc(b1-3)[Gal(b1-4)GlcNAc(b1-3)Gal(b1-4)GlcNAc(b1-6)]GalNAc
In short: as §1

[9] = molecular target: Gal(b1-4)GlcNAc(b1-3)Gal(b1-4)GlcNAc(b1-6)[Gal(b1-3)]GalNAc
In short: as §1

[10] = molecular target: Gal(b1-4)GlcNAc(b1-3)Gal(b1-4)[Fuc(a1-3)]GlcNAc(b1-3)Gal(b1-4)[Fuc(a1-3)]GlcNAc
In short: as §1

[11] = molecular target: Gal(b1-4)GlcNAc(b1-3)GalNAc
In short: as §1

[12] = molecular target: Gal(b1-4)GlcNAc(b1-3)[Fuc(a1-3)GlcNAc(b1-6)]Gal(b1-4)Glc
In short: as §1

[13] = molecular target: Gal(b1-4)GlcNAc(b1-3)[Gal(b1-4)GlcNAc(b1-6)]Gal(b1-4)GlcNAc
In short: as §1

[14] = molecular target: Gal(b1-4)GlcNAc(b1-3)[GlcNAc(b1-6)]Gal(b1-4)GlcNAc
In short: as §1

[15] = molecular target: Gal(b1-4)GlcNAc(b1-6)Gal(b1-4)GlcNAc
In short: as §1

[16] = molecular target: Gal(b1-4)GlcNAc(b1-6)GalNAc
In short: as §1

[17] = molecular target: Gal(b1-4)GlcNAc(b1-6)[Gal(b1-3)]GalNAc
In short: as §1

[18] = molecular target: Gal(b1-4)GlcNAc(b1-6)[Gal(b1-4)GlcNAc(b1-3)]GalNAc
In short: as §1

[19] = molecular target: Gal(b1-4)GlcNAc6P
In short: as §1

B1: PV12658A-bvu-496-32-496 (Bacteroides vulgatus) (protein)
chain: DLDGAITTPAAVELALNGIYYSLPGNGFNVIFPTVSGSFKAGTMWRQEIVSAGNAVYYSERMLPTLSFSDATEWDADYAVIKNANFLETACNRMSDGEFSGNRRAEVLGEIAYLRALAYFNILVRYCEFWDMNSEYGVVMRNEAPSVSNALKARSSVADSYQYILDQLEIAIEKAPDWKKLSQASKEAAKALKARVLLYAGKYTEAVAAVNDAIDTNSPLPEANYGDVFDKFSTTKEILFARVFDQKDATNTSTRQQCYGNSPTKKQGYWGPTNEYVELVGDDPRADAIFSKVDSLMDSRSSAVAYNLKSVKKLLNDANDMPVIFSRVSELYLIKAEALYRSGASISEAYAPIRKLRERAGAEIILPANNEELETAIFNEWMLELSFENWHEWFAMIRFAGYTEKPDFTRLLALNKTLREALEKEYEKSEAQGDNYYQRIIDRRIDAIPSSEISSNLECKQNPGY
Which “glycan array binding signal (z-score)” value [1] does the source give for B1 here?
The value was 0.511.

And the “glycan array binding signal (z-score)” value [2]?
The value was 0.761.

And the “glycan array binding signal (z-score)” value [3]?
Its value is 1.98.

And the “glycan array binding signal (z-score)” value [4]?
Its value is 2.19.

And the “glycan array binding signal (z-score)” value [5]?
The value was 1.23.

What about the “glycan array binding signal (z-score)” value [6] of the same binder?
Its value is 0.943.

And the “glycan array binding signal (z-score)” value [7]?
Its value is 3.98.

What about the “glycan array binding signal (z-score)” value [8] of the same binder?
Its value is 0.866.

What about the “glycan array binding signal (z-score)” value [9] of the same binder?
The value was 0.802.

What about the “glycan array binding signal (z-score)” value [10] of the same binder?
The value was -0.316.

And the “glycan array binding signal (z-score)” value [11]?
The value was -0.267.

What about the “glycan array binding signal (z-score)” value [12] of the same binder?
The value was -0.264.

What about the “glycan array binding signal (z-score)” value [13] of the same binder?
Its value is 0.41.

What about the “glycan array binding signal (z-score)” value [14] of the same binder?
The value was -0.107.

And the “glycan array binding signal (z-score)” value [15]?
The value was 0.038.

And the “glycan array binding signal (z-score)” value [16]?
The value was -0.393.

And the “glycan array binding signal (z-score)” value [17]?
The value was -0.428.

And the “glycan array binding signal (z-score)” value [18]?
Its value is -0.158.

What about the “glycan array binding signal (z-score)” value [19] of the same binder?
The value was -0.489.
